# Test results published in the supplement of paper PMC9446081.
# Out of some 39,000 compounds screened, about 220 (0.56%) showed activity. This is one part of the list.
# Tested on: Escherichia coli K-12 BW25113
# Experiment: relative growth (OD600 normalised to plate interquartile mean) (fraction); higher = less growth inhibition, active = 0.2 or less
# Conditions: 50 µM; LB; incubation time: overnight (16-24 h)
# 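Note: static incubation at 37 °C against the wild-type strain, values averaged over two biological replicates.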
row,Structure (SMILES),relative growth
1,Cc1noc(C)c1S(=O)(=O)Nc1ccc2c(c1)CC(=O)N([C@H](C)CO)C[C@@H](C)[C@H](CN(C)C(=O)NC1CCCCC1)O2,inactive: 1.01
2,CO[C@H]1CN(C)C(=O)c2ccc(NC(=O)Nc3cccc(F)c3)cc2OC[C@H](C)N(C(=O)Nc2c(C)noc2C)C[C@H]1C,inactive: 1
3,CC(C)CC#Cc1ccc2c(c1)O[C@@H](CN(C)S(=O)(=O)c1ccc(F)cc1)[C@@H](C)CN([C@@H](C)CO)S2(=O)=O,inactive: 1.07
4,C[C@@H]1CN([C@@H](C)CO)C(=O)c2cccc(NC(=O)C3CC3)c2O[C@H]1CN(C)Cc1ccc(Oc2ccccc2)cc1,inactive: 1.04
5,C[C@@H]1CN([C@H](C)CO)C(=O)Cc2cc(NC(=O)CCN3CCOCC3)ccc2O[C@@H]1CN(C)Cc1ccc2c(c1)OCO2,inactive: 1
6,C[C@H](CO)N1C[C@H](C)[C@@H](CN(C)C(=O)Nc2ccc3c(c2)OCO3)Oc2ccc(NS(=O)(=O)c3cn(C)cn3)cc2CC1=O,inactive: 0.988
7,COC(=O)C[C@H]1CC[C@H]2[C@@H](COC[C@@H](O)CN2S(=O)(=O)c2ccc(F)cc2)O1,inactive: 0.99
8,C[C@H]1CCCCO[C@H](CN(C)C(=O)Nc2ccc(C(F)(F)F)cc2)[C@@H](C)CN([C@@H](C)CO)C(=O)c2cc(NC(=O)Nc3ccccc3)ccc2O1,inactive: 1.01
9,COc1ccc(N(C(=O)CCl)[C@@H](C(=O)NCCc2ccccc2)c2ccc(Cl)s2)cc1Cl,inactive: 1
10,COc1cccc(C(=O)Nc2ccc3c(c2)C(=O)N(C)[C@@H]2CC[C@H](CC(=O)NCCCN4CCOCC4)O[C@@H]2CO3)c1,inactive: 1.04
11,COCC#Cc1ccc2c(c1)O[C@@H](CN(C)C(=O)C1CCCCC1)[C@H](C)CN([C@@H](C)CO)S2(=O)=O,inactive: 1.04
12,CSC1=NN(C)c2cnn(C)c(=O)c2S1,inactive: 1.02
13,CCS(=O)(=O)N1C[C@]2(CCN(CC2)S(=O)(=O)c2cn(cn2)C)c2c([nH]c3cc(ccc23)OC)[C@H]1CO,inactive: 0.988
14,CCCNC(=O)N[C@H]1CC[C@@H](CC(=O)N2CCN(C)CC2)O[C@H]1CO,inactive: 0.986
15,C[C@H]1CCCCO[C@H](CN(C)S(=O)(=O)c2ccccc2)[C@@H](C)CN([C@@H](C)CO)C(=O)c2cc(NS(=O)(=O)c3ccc(Cl)cc3)ccc2O1,inactive: 1.02
16,CC(C)CC#Cc1ccc2c(c1)O[C@@H](CN(C)C(=O)c1ccccn1)[C@@H](C)CN([C@H](C)CO)S2(=O)=O,inactive: 1
17,O=c1[nH]cccc1F,inactive: 0.964
18,COc1ccc(NC(=O)N(C)C[C@H]2Oc3cc(C#CCN(C)C)ccc3S(=O)(=O)N([C@@H](C)CO)C[C@H]2C)cc1,inactive: 0.997
19,Cc1ccc(S(=O)(=O)Nc2ccc3c(c2)C(=O)N([C@@H](C)CO)C[C@H](C)[C@@H](CN(C)CC2CC2)O3)cc1,inactive: 1.03
20,COC(=O)[C@H]1[C@H](CO)[C@H]2Cn3c(ccc(-c4cncnc4)c3=O)[C@H]2N1C(=O)C1CCC1,inactive: 0.99

row,Structure (SMILES),relative growth
1,Cc1cc(C(=O)Nc2cccc3c2O[C@@H](CN(C)S(=O)(=O)c2cn(C)cn2)[C@H](C)CN([C@@H](C)CO)C3=O)n(C)n1,inactive: 0.999
2,Cc1noc(C)c1S(=O)(=O)Nc1ccc2c(c1)CC(=O)N([C@H](C)CO)C[C@H](C)[C@@H](CN(C)C(=O)Nc1ccccc1)O2,inactive: 0.989
3,COc1ccc(NC(=O)Nc2ccc3c(c2)C(=O)N([C@@H](C)CO)C[C@@H](C)[C@H](CN(C)Cc2ccc4c(c2)OCO4)OCCCC[C@@H](C)O3)cc1,inactive: 1.01
4,COCC#Cc1ccc([C@H]2[C@H]3CN(C(=O)c4cccnc4)CC(=O)N3[C@H]2CO)cc1,inactive: 0.998
5,O=C(O)C[C@](O)(CC(=O)[O][Bi]1[O]C(=O)C[C@@](O)(CC(=O)O)C(=O)[O]1)C(=O)O,inactive: 0.881
6,CC(C)NC(=O)Nc1ccc2c(c1)C(=O)N([C@@H](C)CO)C[C@@H](C)[C@@H](CN(C)S(=O)(=O)c1cn(C)cn1)OCCCC[C@@H](C)O2,inactive: 0.986
7,Cc1ccc(S(=O)(=O)N(C)C[C@H]2Oc3c(NC(=O)Nc4ccc(C(F)(F)F)cc4)cccc3C(=O)N([C@H](C)CO)C[C@@H]2C)cc1,inactive: 0.864
8,CCNC(=O)C[C@@H]1C=C[C@@H](NC(=O)C2CCOCC2)[C@H](CO)O1,inactive: 0.988
9,C[C@@H]1CN(C)S(=O)(=O)CCO1,inactive: 1.01
10,C[C@H](CO)N1C[C@H](C)[C@H](CN(C)Cc2ccccc2)Oc2c(NC(=O)Nc3ccc(C(F)(F)F)cc3)cccc2C1=O,inactive: 1.05
11,Cc1noc(C)c1NC(=O)Nc1ccc2c(c1)C(=O)N([C@@H](C)CO)C[C@H](C)[C@H](CN(C)C(=O)Nc1ccc(C(F)(F)F)cc1)O2,inactive: 0.921
12,C[C@@H]1CN([C@H](C)CO)C(=O)CCCn2nncc2CO[C@H]1CN(C)C(=O)c1ccc(N2CCN(C)CC2)cc1,inactive: 0.987
13,C[C@H](CO)N1C[C@H](C)[C@H](CN(C)C(=O)Cc2ccccc2)Oc2ncc(C#CC3(O)CCCC3)cc2C1=O,inactive: 1.01
14,O=C(C[C@H]1CC[C@H]2[C@@H](COC[C@H](O)CN2C(=O)c2ccncc2)O1)NCc1ccc(-c2ccccc2)cc1,inactive: 1.01
15,O=C1O[C@@H](c2ccccc2)[C@@H](c2ccccc2)N2[C@@H](c3ccccc3OCCO)[C@]3(C(=O)Nc4ccc(C#CC5=CCCCC5)cc43)[C@@H](C(=O)N3CCCCCCC3)[C@H]12,inactive: 1.03
16,C[C@H](CO)N1C[C@H](C)[C@@H](CN(C)Cc2ccc(-c3ccccc3)cc2)Oc2c(NC(=O)CCCCCC(=O)Nc3ccccc3N)cccc2C1=O,inactive: 1.03
17,C[C@@H]1CN([C@H](C)CO)C(=O)c2c(c3ccccc3n2C)-c2ccccc2CO[C@H]1CN(C)Cc1ccc(O)cc1,inactive: 0.996
18,Cc1ccc(S(=O)(=O)Nc2ccc3c(c2)C(=O)N([C@@H](C)CO)C[C@@H](C)[C@H](CN(C)C(=O)Nc2cccc4ccccc24)O3)cc1,inactive: 1.01
19,Cc1noc(C)c1NC(=O)N(C)C[C@H]1Oc2c(NC(=O)Nc3ccc(C(F)(F)F)cc3)cccc2C(=O)N([C@@H](C)CO)C[C@H]1C,inactive: 0.984
20,Cc1noc(C)c1NC(=O)Nc1ccc2c(c1)CC(=O)N([C@H](C)CO)C[C@@H](C)[C@H](CN(C)Cc1ccc(C(F)(F)F)cc1)O2,inactive: 0.98

row,Structure (SMILES),relative growth
1,CC(C)NC(=O)N(C)C[C@H]1OCCCC[C@H](C)Oc2ccc(NC(=O)C3CCCCC3)cc2C(=O)N([C@H](C)CO)C[C@@H]1C,inactive: 0.999
2,C[C@@H]1CN([C@@H](C)CO)C(=O)c2cc(NC(=O)c3ccncc3)ccc2O[C@@H](C)CCCCO[C@@H]1CN(C)Cc1ccccc1,inactive: 1
3,C[C@@H]1CCCCO[C@@H](CN(C)CC2CCCCC2)[C@H](C)CN([C@@H](C)CO)C(=O)c2cc(NC(=O)CCC(F)(F)F)ccc2O1,inactive: 0.982
4,CC(=O)C1CCC2C3CC=C4CC(OC(=O)CCC(=O)O)CCC4(C)C3CCC12C (stereo not given),inactive: 1.14
5,CCc1c(C)[nH]c(N2CCOCC2)nc1=O,inactive: 0.986
6,COc1ccc(S(=O)(=O)N(C)C[C@H]2Oc3ccc(NC(=O)CCN4CCOCC4)cc3CC(=O)N([C@H](C)CO)C[C@@H]2C)cc1,inactive: 1.02
7,O=C(O)C(O)C(O)C(=O)O.OCc1cccnc1 (stereo not given),inactive: 1.06
8,COc1ccc(NC(=O)N(C)C[C@@H]2OCCCC[C@H](C)Oc3ccc(NC(=O)Nc4ccccc4)cc3C(=O)N([C@H](C)CO)C[C@@H]2C)cc1,inactive: 1.06
9,C[C@@H]1CN([C@@H](C)CO)C(=O)c2cccc(NC(=O)C3CCCCC3)c2O[C@H]1CN(C)C(=O)Nc1ccc(C(F)(F)F)cc1,inactive: 0.91
10,C[C@H](CO)N1C[C@H](C)[C@@H](CN(C)Cc2ccc(Cl)c(Cl)c2)OCCCC[C@H](C)Oc2ccc(NC(=O)NC3CCCCC3)cc2C1=O,inactive: 1.01
11,CCNC(=O)c1cc2c(c(-c3cccc(-c4cccc(F)c4)c3)n1)[C@@H](CCO)N([S@](=O)C(C)(C)C)C2,inactive: 1
12,C=C1O[C@@](CO)(n2cnc3c(N)ncnc32)[C@H](O)[C@@H]1O,inactive: 1.01
13,CCCC(=O)Nc1ccc2c(c1)C(=O)N(C)[C@@H]1CC[C@@H](CC(=O)NCCN3CCCCC3)O[C@@H]1CO2,inactive: 1
14,CC(C)NC(=O)N(C)C[C@H]1Oc2ccc(NC(=O)Cn3cnnn3)cc2CC(=O)N([C@H](C)CO)C[C@@H]1C,inactive: 1.04
15,C[C@@H]1CCCCO[C@H](CN(C)Cc2ccc3c(c2)OCO3)[C@@H](C)CN([C@@H](C)CO)C(=O)c2cc(NS(=O)(=O)c3ccccc3)ccc2O1,inactive: 0.953
16,C[C@@H]1CCCCO[C@H](CN(C)C(=O)c2ccccc2)[C@@H](C)CN([C@H](C)CO)C(=O)c2cc(NC(=O)Nc3ccc(C(F)(F)F)cc3)ccc2O1,inactive: 1.06
17,C[C@H](CCC(=O)NCC(=O)NCCS(=O)(=O)O)[C@H]1CC[C@H]2[C@@H]3[C@H](O)C[C@@H]4C[C@H](O)CC[C@]4(C)[C@H]3C[C@H](O)[C@]12C,inactive: 1
18,C[C@@H]1CCCCO[C@@H](CN(C)C(=O)Cc2ccccc2)[C@@H](C)CN([C@@H](C)CO)C(=O)c2cc(NC(=O)Nc3ccc4c(c3)OCO4)ccc2O1,inactive: 1.01
19,Cc1cc(NC(=O)C(=O)NC[C@H]2CCCO2)n(-c2nc(=O)cc(C)[nH]2)n1,inactive: 1.01
20,C[C@@H]1CN([C@@H](C)CO)S(=O)(=O)c2ccc(C#CC3(O)CCCC3)cc2O[C@H]1CN(C)C(=O)Cc1ccccc1,inactive: 1
